# Data as given in article PMC4336329 (PLoS ONE, 2015).
# Hit rate of the full screen: of about 310,000 compounds, about 2,200 (0.71%) showed an effect of 50% or more. The effect is printed as a negative number. Some of the results follow.
# Biological target: human ether-à-go-go-related gene (hERG) potassium channel (human, UniProt Q12809)
# Assay: primary screen, population patch clamp on CHO cells stably expressing hERG
# Sequence of human ether-à-go-go-related gene (hERG) potassium channel (Q12809 whole entry, looked up): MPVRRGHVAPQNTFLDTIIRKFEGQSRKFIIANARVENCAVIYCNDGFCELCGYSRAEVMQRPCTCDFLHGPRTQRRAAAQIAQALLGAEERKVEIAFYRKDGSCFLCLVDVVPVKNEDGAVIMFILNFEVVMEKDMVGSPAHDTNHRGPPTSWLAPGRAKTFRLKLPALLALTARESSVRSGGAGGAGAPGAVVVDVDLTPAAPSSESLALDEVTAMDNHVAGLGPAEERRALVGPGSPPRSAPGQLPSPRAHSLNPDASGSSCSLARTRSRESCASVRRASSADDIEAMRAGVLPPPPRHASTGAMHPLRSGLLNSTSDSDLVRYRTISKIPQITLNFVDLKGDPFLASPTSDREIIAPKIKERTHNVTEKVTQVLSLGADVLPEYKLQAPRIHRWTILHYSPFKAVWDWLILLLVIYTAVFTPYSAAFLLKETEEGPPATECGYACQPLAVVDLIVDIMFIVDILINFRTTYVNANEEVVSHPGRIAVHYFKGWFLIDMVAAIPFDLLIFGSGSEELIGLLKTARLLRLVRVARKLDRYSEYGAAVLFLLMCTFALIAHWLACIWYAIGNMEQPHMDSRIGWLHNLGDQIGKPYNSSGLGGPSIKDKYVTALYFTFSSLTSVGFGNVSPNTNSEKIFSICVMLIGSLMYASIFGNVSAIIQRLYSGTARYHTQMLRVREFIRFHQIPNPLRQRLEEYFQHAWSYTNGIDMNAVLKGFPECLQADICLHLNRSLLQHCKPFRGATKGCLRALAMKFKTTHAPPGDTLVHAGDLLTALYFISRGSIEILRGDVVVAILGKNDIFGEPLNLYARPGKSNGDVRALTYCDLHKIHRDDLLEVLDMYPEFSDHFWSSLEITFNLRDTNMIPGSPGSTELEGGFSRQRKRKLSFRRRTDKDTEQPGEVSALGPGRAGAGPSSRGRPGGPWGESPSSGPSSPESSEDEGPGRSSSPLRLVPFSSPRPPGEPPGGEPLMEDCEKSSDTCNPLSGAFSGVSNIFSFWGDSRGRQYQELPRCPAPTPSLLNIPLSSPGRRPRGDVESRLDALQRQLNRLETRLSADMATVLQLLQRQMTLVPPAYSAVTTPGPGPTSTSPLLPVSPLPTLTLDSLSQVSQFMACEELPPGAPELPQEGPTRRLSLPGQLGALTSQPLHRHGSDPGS
row,SMILES,"hERG current change (%, negative = inhibition) at 1uM"
1,CCCCOC(=O)Sc1nc2ccccc2o1,11.5%
2,CCN(CC)c1ccc(NC(=O)C2CC3CCC2C3)cc1 (stereo not shown),2.08%
3,COCCSc1nnc(NS(=O)(=O)c2ccc(C)cc2)s1,7.8%
4,COc1ccc(CCNC(=O)CC2COc3ccccc3O2)cc1OC (stereo not shown),8.23%
5,COc1ccc(C(=O)CC(=O)c2ccccc2)cc1,5.2%
6,CCCCNCCCOc1ccc(C)cc1Br.O=C(O)C(=O)O,3.78%
7,O=C(Oc1cccc([N+](=O)[O-])c1)N1CCCCC1,0.172%
8,COc1cc(/C=C/C(=O)OCC(=O)Nc2c(C)n(C)n(-c3ccccc3)c2=O)cc(OC)c1OC,9.88%
9,O=C(Nc1ccc(S(=O)(=O)N2CCCC2)cc1)C1CC(=O)N(c2ccccc2)C1 (stereo not shown),17.7%
10,O=C(NC(=S)N1CCCC1)c1ccc(Cl)cc1,12.5%
11,COc1ccc(S(=O)(=O)N2CCC3(CC2)OCCN3S(=O)(=O)c2cccs2)cc1OC,0.929%
12,O=C(CSc1nc2sc3c(c2c(=O)n1-c1ccccc1)CCCC3)N/N=C/c1ccc(C(=O)O)cc1,6.47%
13,O=C(NCCc1ccccc1)C(=O)NCC1CCCO1 (stereo not shown),4.35%
14,CN1C(=S)SC(/[N+]([O-])=C/c2cccnc2)C1(C)C (stereo not shown),4.74%
15,O=C(NCCN1CCOCC1)c1cc2cc([N+](=O)[O-])ccc2s1,-16.7%
16,CC(NC(=O)CCl)c1ccc(Cl)c(Cl)c1 (stereo not shown),1.86%
17,COc1ccc2nc(SCC(=O)Nc3ccc(S(=O)(=O)N4CCCC4)cc3)c(C#N)cc2c1,-3.01%
18,O=C(COC(=O)/C=C/c1ccc([N+](=O)[O-])cc1)NCc1ccccc1,4.71%
19,CCCCC(C(=O)O)C(C)CC(=O)Nc1ccn(-c2ccccc2)n1 (stereo not shown),14.1%
20,COc1cc(CNC(=O)C2CCCN2S(=O)(=O)c2ccccc2)cc(OC)c1OC (stereo not shown),14%
21,Clc1ccccc1-c1ccc(/C=N/n2cnnc2)o1,1.23%
22,O=C(NN/C(=N/S(=O)(=O)c1ccc(Cl)cc1)c1ccccc1)c1ccc(O)cc1,34%
23,C[C@@H]1CC[C@@]2(O[C@@H](CCO)C[C@@H](O)[C@@H]2O)O1,20.7%
24,COc1cccc(/C=C/C(=O)N(C)CC(=O)Nc2ccc(Cl)c(C(F)(F)F)c2)c1,16.7%

row,SMILES,"hERG current change (%, negative = inhibition) at 1uM"
1,CCCN(CCC)c1ncnc2c1cnn2-c1ccc(OC)cc1,6.68%
2,NS(=O)(=O)c1ccc(NC(=O)CCC(=O)c2cccs2)cc1,10.5%
3,COc1cccc(NC(=O)CSc2nnc(NC(=O)c3ccco3)s2)c1,8.44%
4,Clc1ccccc1-c1nnn(Cc2ccc(-c3nn[nH]n3)cc2)n1,7.12%
5,Br.COc1cc(NS(=O)(=O)c2ccc(Nc3nc(-c4cccc([N+](=O)[O-])c4)cs3)cc2)nc(OC)n1,0.0217%
6,CC1CC(C)CN(CC(=O)NC(c2ccccc2)c2ccccc2)C1.O=C(O)C(=O)O (stereo not shown),-23.2%
7,CN1CCN(CC(=O)Nc2ccc([N+](=O)[O-])cc2Br)CC1,-55.8%
8,O=S1(=O)CCOC[C@H](Cc2ccccc2)N1Cc1ccc(Cl)cc1,21%
9,O=C(COc1ccc(Cl)cc1Cl)OCC(=O)c1ccc[nH]1,-0.706%
10,O=C1CCC(C(=O)N2CCSCC2)CN1CCc1ccccc1 (stereo not shown),14.5%
11,O=C1CC(C(=O)Nc2ccc(C(=O)O)cc2)C(c2ccccc2)O1 (stereo not shown),25%
12,O=C(NCCN1CCCCC1)Nc1ccc(F)cc1F,10.1%
13,C=CCNC(=O)COc1cc(C)ccc1C,15.6%
14,Cc1ccc(C)c(C(C)NC(=O)c2ccc(Br)o2)c1 (stereo not shown),7.77%
15,COc1ccc(NC(=O)Nc2nnc(CC(=O)Nc3ccccc3)s2)cc1,4.6%
16,CCc1cccc(CC)c1NC(=O)CO/N=C(\N)CC(=O)NC1CCCCC1,18.5%
17,Cc1ccc(-c2nn3c(C)nnc3s2)cc1NC(=O)c1ccc(Br)o1,-4.82%
18,O=C(O)c1cccc(S(=O)(=O)Nc2cccc(S(=O)(=O)N3CCCCCC3)c2)c1,12.1%
19,O=C(OCc1nc(-c2ccccc2Cl)no1)c1ccco1,8.17%
20,O=C(C1CC12CCCC2)N1CCC(CO)(Cc2ccccc2Cl)CC1 (stereo not shown),9.62%
21,Cc1ccc(S(=O)(=O)CCC(=O)OCC(=O)Nc2ccc(N3CCOCC3)cc2)cc1,9.08%
22,CCCn1c(CCC(=O)O)nc2cc(S(=O)(=O)N3CCCC3)ccc21,13.7%
23,Cc1cc(C)nc(SCc2nnc(SCC(=O)Nc3ccc(Cl)c(C(F)(F)F)c3)o2)n1,17.4%
24,O=S(=O)(Nc1cccc(-n2cnnn2)c1)c1cccc(Cl)c1,13.6%

row,SMILES,"hERG current change (%, negative = inhibition) at 1uM"
1,CC(C)C(C(=O)NCc1ccco1)N(CC1CCCO1)C(=O)CNS(=O)(=O)c1ccccc1 (stereo not shown),11.3%
2,CC1=CC(C)(C)Nc2ccc(OC(=O)CN3C(=O)c4cccc5cccc(c45)C3=O)cc21,9.14%
3,CCCC(C(=O)c1ccccc1)n1cncn1 (stereo not shown),18.2%
4,Cc1cccc(NC(=O)c2cc([N+](=O)[O-])ccc2N2CCCCC2)n1,0.983%
5,COc1cc(C(=O)NC(c2ccccc2)c2ccccc2)cc(OC)c1OC,13.7%
6,COc1ccc(NC(=O)c2cccnc2Sc2ccccc2)c(OC)c1,14%
7,COc1ccc(NS(=O)(=O)c2ccc(O)c(C(=O)OCC(=O)NC3CCCCC3)c2)cc1,9.36%
8,COc1ccccc1N(CC(=O)N/N=C/c1ccccc1C(=O)O)S(C)(=O)=O,10.5%
9,N#Cc1cc([N+](=O)[O-])ccc1NCC1CCCO1 (stereo not shown),10.3%
10,COc1ccc(-c2nc(C)sc2CC(=O)O)cc1OC,5.37%
11,Cc1ccc(Nc2nc(Oc3ccc(OCc4ccccc4)nn3)nc(N3CCOCC3)n2)cc1,11.6%
12,C/C=C(/C)C(=O)Nc1cccc(C2=NOC3(C2)C[C@@H](C(N)=O)N(C(=O)CCCCC)C3)c1 (stereo partly shown),-16.1%
13,CC(C)OCCCNC(=S)NNC(=O)C(c1ccccc1)c1ccccc1,8.72%
14,CC(NC(=O)c1cccs1)C1CCCO1 (stereo not shown),14.1%
15,Cl.O=C(NCCCn1ccnc1)c1ccc(S(=O)(=O)N2CCCCCC2)cc1,9.74%
16,COc1cc2c(cc1OC)C(C)N(C(=O)CCN1C(=O)C3C4C=CC(C4)C3C1=O)CC2 (stereo not shown),9.39%
17,Cc1cnc(NC(=O)c2cc3c(C)nn(Cc4ccccc4Cl)c3s2)s1,6.03%
18,CCOC(=O)C(NC(=O)c1ccccc1)=C(C)C,12%
19,S=C(Nc1ccccc1Cl)NC1CC2CCCC(C1)N2C1CC1 (stereo not shown),1.02%
20,CN(C)c1cccc(/C=C(\C#N)c2ccccc2)c1,14.2%
21,CCC(Sc1nnc(-c2ccc(C)c(Cl)c2)n1CC)C(=O)Nc1nccs1 (stereo not shown),8.86%
22,CN1CCN(/N=C/c2ccc(N(C)c3ccccc3)cc2)CC1,-2.11%
